The target in one test is LUC1-TNPO1 (UniProt Q92973). Kind of test: split reporter; split firefly luciferase complementation in transiently transfected HEK293 cells (400 ng each construct), activity measured in cell lysates 48 h after transfection, normalised to renilla luciferase.
Test [1] concerns the target MYC-tagged TNPO1 (UniProt Q92973). Kind of test: co-IP; luciferase-based read-out: HEK293 cells co-expressing PER1/2-Luc and MYC-TNPO1 (anti-MYC IP) or PER1/2-V5 and TNPO1-Luc (anti-V5 IP), lysed in PKB buffer without protease and phosphatase inhibitors, agarose G+ beads, 4°C, washed with ice cold PBS; luminescence counts relative to normal mouse IgG control IPs; also done with 200 μM H2O2 (higher signals for PER1, not PER2).

Protein sequences, listed by entry. Tags and fused reporters are not part of them.
UniProt Q92973: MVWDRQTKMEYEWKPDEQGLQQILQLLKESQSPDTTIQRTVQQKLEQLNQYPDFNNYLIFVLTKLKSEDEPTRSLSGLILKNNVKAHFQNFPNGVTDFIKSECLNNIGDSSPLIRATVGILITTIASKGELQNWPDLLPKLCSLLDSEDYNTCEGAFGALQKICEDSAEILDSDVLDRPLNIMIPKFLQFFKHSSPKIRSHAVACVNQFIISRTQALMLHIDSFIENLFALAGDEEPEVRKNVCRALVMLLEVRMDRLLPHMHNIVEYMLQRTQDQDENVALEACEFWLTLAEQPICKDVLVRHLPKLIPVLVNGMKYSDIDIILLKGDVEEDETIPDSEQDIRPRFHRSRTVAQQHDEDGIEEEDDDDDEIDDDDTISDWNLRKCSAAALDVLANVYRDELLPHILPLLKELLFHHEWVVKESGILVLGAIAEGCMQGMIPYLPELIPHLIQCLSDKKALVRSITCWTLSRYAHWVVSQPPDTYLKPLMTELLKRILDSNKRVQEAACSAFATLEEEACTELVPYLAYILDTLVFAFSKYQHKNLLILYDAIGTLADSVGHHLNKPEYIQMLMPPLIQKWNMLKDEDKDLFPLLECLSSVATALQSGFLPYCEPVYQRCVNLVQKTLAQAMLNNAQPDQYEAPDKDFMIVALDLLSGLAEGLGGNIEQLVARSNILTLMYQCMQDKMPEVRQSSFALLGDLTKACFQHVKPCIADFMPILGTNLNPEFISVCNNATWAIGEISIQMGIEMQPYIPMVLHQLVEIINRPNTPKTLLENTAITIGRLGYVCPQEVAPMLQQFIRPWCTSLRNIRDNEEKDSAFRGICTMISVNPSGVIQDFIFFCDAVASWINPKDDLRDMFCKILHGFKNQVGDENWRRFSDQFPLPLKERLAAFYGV
UniProt O54943: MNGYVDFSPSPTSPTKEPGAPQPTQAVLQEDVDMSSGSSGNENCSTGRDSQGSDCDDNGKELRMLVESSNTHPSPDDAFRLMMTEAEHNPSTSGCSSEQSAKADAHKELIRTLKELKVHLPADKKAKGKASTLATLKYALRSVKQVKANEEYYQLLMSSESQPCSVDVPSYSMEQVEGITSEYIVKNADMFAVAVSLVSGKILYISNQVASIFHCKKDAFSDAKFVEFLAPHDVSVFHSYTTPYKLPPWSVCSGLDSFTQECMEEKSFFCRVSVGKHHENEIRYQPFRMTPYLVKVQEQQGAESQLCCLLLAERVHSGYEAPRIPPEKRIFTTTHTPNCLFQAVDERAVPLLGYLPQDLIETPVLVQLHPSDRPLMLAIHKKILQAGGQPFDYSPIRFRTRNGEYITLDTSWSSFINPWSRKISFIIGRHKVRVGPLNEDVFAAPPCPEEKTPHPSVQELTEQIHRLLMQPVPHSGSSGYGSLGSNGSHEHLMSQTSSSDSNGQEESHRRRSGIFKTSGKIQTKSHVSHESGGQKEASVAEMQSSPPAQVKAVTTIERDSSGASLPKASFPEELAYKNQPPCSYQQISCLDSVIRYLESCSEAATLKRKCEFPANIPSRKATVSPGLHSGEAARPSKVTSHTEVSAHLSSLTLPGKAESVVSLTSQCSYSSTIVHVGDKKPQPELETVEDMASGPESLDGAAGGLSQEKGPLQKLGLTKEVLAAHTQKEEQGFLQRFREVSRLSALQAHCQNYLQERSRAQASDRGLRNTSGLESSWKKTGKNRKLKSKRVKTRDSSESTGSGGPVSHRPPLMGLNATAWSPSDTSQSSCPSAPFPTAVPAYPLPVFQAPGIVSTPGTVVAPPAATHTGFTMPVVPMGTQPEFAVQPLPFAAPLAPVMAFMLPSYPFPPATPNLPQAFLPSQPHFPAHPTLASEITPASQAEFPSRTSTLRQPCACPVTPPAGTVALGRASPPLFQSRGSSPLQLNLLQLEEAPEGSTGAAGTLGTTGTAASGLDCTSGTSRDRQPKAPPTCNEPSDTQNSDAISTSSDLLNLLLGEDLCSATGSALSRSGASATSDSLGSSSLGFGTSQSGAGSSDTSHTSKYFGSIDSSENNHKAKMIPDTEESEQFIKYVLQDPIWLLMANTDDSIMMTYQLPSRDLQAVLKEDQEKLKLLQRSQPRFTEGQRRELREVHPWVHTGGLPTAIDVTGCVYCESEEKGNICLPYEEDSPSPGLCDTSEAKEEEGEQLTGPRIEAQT
UniProt P00722: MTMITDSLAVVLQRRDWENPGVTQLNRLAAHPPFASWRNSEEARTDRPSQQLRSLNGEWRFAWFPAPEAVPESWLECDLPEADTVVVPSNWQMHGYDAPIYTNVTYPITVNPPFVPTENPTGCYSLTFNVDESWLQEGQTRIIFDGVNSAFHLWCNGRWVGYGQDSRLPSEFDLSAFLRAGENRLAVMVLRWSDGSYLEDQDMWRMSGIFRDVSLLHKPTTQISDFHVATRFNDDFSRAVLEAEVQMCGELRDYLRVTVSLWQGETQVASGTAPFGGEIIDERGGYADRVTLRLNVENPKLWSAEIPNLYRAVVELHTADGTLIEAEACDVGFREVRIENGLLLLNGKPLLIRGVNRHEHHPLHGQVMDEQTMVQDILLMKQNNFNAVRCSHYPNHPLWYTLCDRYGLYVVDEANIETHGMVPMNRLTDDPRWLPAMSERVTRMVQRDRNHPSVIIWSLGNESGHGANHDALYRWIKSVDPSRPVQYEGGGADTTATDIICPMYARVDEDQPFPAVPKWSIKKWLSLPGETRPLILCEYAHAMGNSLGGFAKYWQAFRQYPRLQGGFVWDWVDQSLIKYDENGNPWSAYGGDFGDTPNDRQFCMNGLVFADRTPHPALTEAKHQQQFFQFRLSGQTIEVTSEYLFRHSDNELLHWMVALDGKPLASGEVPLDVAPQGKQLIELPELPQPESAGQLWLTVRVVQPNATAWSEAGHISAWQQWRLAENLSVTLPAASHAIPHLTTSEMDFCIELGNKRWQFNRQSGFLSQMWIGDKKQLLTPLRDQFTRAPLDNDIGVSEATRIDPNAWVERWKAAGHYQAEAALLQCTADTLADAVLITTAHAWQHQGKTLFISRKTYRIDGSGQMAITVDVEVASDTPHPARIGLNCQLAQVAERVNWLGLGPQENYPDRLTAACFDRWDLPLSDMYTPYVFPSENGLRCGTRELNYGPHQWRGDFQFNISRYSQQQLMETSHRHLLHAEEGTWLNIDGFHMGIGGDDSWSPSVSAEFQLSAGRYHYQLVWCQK

Test [2] deals with Transportin 1 (TNPO1), endogenous (human (endogenous in U-2 OS)) (UniProt Q92973). As to the kind of experiment: condition: only reducing conditions (1 mM TCEP in the lysis buffer); co-IP; as a5 but under reducing conditions: 1 mM TCEP added to the PKB lysis buffer.
Test [3] has the same target. Kind of test: co-IP; U-2 OS cells stably expressing PER1-LUCIFERASE, lysate in PKB buffer, IP with anti-TNPO1 (ab10303) of endogenous TNPO1 against IgG control, luciferase read-out; also with increasing H2O2 concentrations and 200 μM diamide (increased signal).
The target of test [4] is V5-tagged PER1 (not stated (human PER1 in the scheme of Fig 3D; mPER1 CDS named for the Venus constructs)) (UniProt O15534). As to the kind of experiment: co-IP; luciferase-based read-out: HEK293 cells co-expressing PER1/2-Luc and MYC-TNPO1 (anti-MYC IP) or PER1/2-V5 and TNPO1-Luc (anti-V5 IP), lysed in PKB buffer without protease and phosphatase inhibitors, agarose G+ beads, 4°C, washed with ice cold PBS; luminescence counts relative to normal mouse IgG control IPs; also done with 200 μM H2O2 (higher signals for PER1, not PER2).

For test [5], the target named is V5-tagged PER2 (not stated (mPER2 CDS named for the Venus constructs)) (UniProt O54943). The description is as above.
The target of test [6] is MYC-tagged TNPO1 (UniProt Q92973). The test is described as above. The source holds these as a separate data set.

The record followed here is article PMC5805371.

Where two headings read alike, the source gives them in different places. Results are given in words; binding and its absence hold for the method and conditions named. Binding seen in cells or lysates may run through a third protein. Some entries that bind do so weakly or less than the wild type. For some of these results: Where a sequence is shown, tags or fusion partners need not be part of it.

As to LUC2-βGAL (from UniProt P00722 1-1024), the binding result with LUC1-TNPO1 is on record as “no binding”. With “PER1 fused to full-length firefly luciferase (HEK293) (from UniProt O15534 1-1290)”, in the test with MYC-tagged TNPO1 [1], the binding result is reported as “binds”. Take “PER1-LUCIFERASE fusion protein (stably expressed in U-2 OS cells) (from UniProt O15534 1-1290)”: the binding result in test [2] is reported as “no binding”; in test [3], “binds”. On to “TNPO1-luciferase (from UniProt Q92973 1-898)”, for which the binding result is “binds” in test [4] and “binds weakly” in test [5].

As for PER1-LUC2 (from UniProt O15534 1-1290), the binding entry in the test with LUC1-TNPO1 is reported as “binds”. Consider “PER2 fused to full-length firefly luciferase (from UniProt O54943 1-1257)”, for which, in the test with MYC-tagged TNPO1 [1], the binding result is on record as “binds weakly”.

B1: PER1 (amino acids 1–924)-LUCIFERASE (domain or fragment, UniProt O15534 1-924)
chain: MSGPLEGADGGGDPRPGESFCPGGVPSPGPPQHRPCPGPSLADDTDANSNGSSGNESNGHESRGASQRSSHSSSSGNGKDSALLETTESSKSTNSQSPSPPSSSIAYSLLSASSEQDNPSTSGCSSEQSARARTQKELMTALRELKLRLPPERRGKGRSGTLATLQYALACVKQVQANQEYYQQWSLEEGEPCSMDMSTYTLEELEHITSEYTLQNQDTFSVAVSFLTGRIVYISEQAAVLLRCKRDVFRGTRFSELLAPQDVGVFYGSTAPSRLPTWGTGASAGSGLRDFTQEKSVFCRIRGGPDRDPGPRYQPFRLTPYVTKIRVSDGAPAQPCCLLIAERIHSGYEAPRIPPDKRIFTTRHTPSCLFQDVDERAAPLLGYLPQDLLGAPVLLFLHPEDRPLMLAIHKKILQLAGQPFDHSPIRFCARNGEYVTMDTSWAGFVHPWSRKVAFVLGRHKVRTAPLNEDVFTPPAPSPAPSLDTDIQELSEQIHRLLLQPVHSPSPTGLCGVGAVTSPGPLHSPGSSSDSNGGDAEGPGPPAPVTFQQICKDVHLVKHQGQQLFIESRARPQSRPRLPATGTFKAKALPCQSPDPELEAGSAPVQAPLALVPEEAERKEASSCSYQQINCLDSILRYLESCNLPSTTKRKCASSSSYTTSSASDDDRQRTGPVSVGTKKDPPSAALSGEGATPRKEPVVGGTLSPLALANKAESVVSVTSQCSFSSTIVHVGDKKPPESDIIMMEDLPGLAPGPAPSPAPSPTVAPDPAPDAYRPVGLTKAVLSLHTQKEEQAFLSRFRDLGRLRGLDSSSTAPSALGERGCHHGPAPPSRRHHCRSKAKRSRHHQNPRAEAPCYVSHPSPVPPSTPWPTPPATTPFPAVVQPYPLPVFSPRGGPQPLPPAPTSVPPAAFPAPLVTPMVALVLP
With B1, the binding entry in the test with MYC-tagged TNPO1 [6] is “binds”.

B2: PER1 (amino acids 1–706)-LUCIFERASE (domain or fragment, UniProt O15534 1-706)
chain: MSGPLEGADGGGDPRPGESFCPGGVPSPGPPQHRPCPGPSLADDTDANSNGSSGNESNGHESRGASQRSSHSSSSGNGKDSALLETTESSKSTNSQSPSPPSSSIAYSLLSASSEQDNPSTSGCSSEQSARARTQKELMTALRELKLRLPPERRGKGRSGTLATLQYALACVKQVQANQEYYQQWSLEEGEPCSMDMSTYTLEELEHITSEYTLQNQDTFSVAVSFLTGRIVYISEQAAVLLRCKRDVFRGTRFSELLAPQDVGVFYGSTAPSRLPTWGTGASAGSGLRDFTQEKSVFCRIRGGPDRDPGPRYQPFRLTPYVTKIRVSDGAPAQPCCLLIAERIHSGYEAPRIPPDKRIFTTRHTPSCLFQDVDERAAPLLGYLPQDLLGAPVLLFLHPEDRPLMLAIHKKILQLAGQPFDHSPIRFCARNGEYVTMDTSWAGFVHPWSRKVAFVLGRHKVRTAPLNEDVFTPPAPSPAPSLDTDIQELSEQIHRLLLQPVHSPSPTGLCGVGAVTSPGPLHSPGSSSDSNGGDAEGPGPPAPVTFQQICKDVHLVKHQGQQLFIESRARPQSRPRLPATGTFKAKALPCQSPDPELEAGSAPVQAPLALVPEEAERKEASSCSYQQINCLDSILRYLESCNLPSTTKRKCASSSSYTTSSASDDDRQRTGPVSVGTKKDPPSAALSGEGATPRKEPVVGGTLSPL
For the molecule B2, the binding result with MYC-tagged TNPO1 [6] is “no binding”.
